# Data as given in PubChem BioAssay AID1030 (National Center for Advancing Translational Sciences (NCATS), 2008).
# Hit rate of the full screen: of about 220,000 compounds, about 16,000 (7.3%) were called active. Inconclusive means that the source gave no clear call. Such entries were picked first, then a sample of the others. Calls come from the whole dose curve; as a rule, active = well fitted inhibition curve with a large enough effect (not every such curve was filed as active); inconclusive = small, poorly fitted or top-dose-only effect, or another doubt; inactive = no such curve, though single readings can be large or run the other way. Potencies of inconclusive entries are left out as doubtful fits.
# Molecular target: Aldehyde dehydrogenase 1A1 (Homo sapiens) (UniProt P00352)
# UniProt P00352, sequence (P00352 whole entry, looked up): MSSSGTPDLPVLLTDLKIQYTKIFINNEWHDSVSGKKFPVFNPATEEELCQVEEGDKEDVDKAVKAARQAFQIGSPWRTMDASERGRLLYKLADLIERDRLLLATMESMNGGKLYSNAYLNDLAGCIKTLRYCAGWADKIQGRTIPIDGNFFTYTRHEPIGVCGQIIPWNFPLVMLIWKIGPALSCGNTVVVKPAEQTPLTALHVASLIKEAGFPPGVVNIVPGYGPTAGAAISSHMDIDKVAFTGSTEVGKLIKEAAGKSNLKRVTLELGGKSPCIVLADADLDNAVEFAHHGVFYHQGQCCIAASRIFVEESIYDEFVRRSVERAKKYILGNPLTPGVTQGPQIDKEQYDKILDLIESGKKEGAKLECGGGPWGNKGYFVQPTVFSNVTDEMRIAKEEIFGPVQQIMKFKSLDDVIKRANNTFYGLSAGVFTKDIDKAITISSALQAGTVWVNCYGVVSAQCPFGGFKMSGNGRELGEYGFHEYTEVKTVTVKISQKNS
# Assay: qHTS Assay for Inhibitors of Aldehyde Dehydrogenase 1 (ALDH1A1);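 for activity, negative = inhibition: plate controls were no enzyme wells and a reference inhibitor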
# Conditions: Purified ALDH1A1, NADH fluorescence, propionaldehyde substrate; series mostly up to 75.3 µM; activity, negative = inhibition: at the top concentration
# Potency is the fitted concentration of half-maximal effect; tags give direction and shape of the fitted curve.
Compound,Potency,"activity, negative = inhibition"
COc1cccc(NC(=O)CN(C)CC(=O)Nc2ccc(C)cc2Cl)c1,active: 11.2 µM,–
Nc1ccc(C(=O)n2c3ccccc3c3ccccc32)cc1,active: 11.2 µM,–
COc1ccc(-c2nc(N)c3ncn([C@H]4O[C@@H](CO)[C@@H](O)[C@@H]4O)c3n2)cc1,–,inactive: 10.8% [at 13.5 µM]
CC1CC1C(=O)OCC(=O)Nc1ccccc1Oc1ccccc1 (centres undefined),"inconclusive [inhibitor, partial curve]",–
CCOC(=O)c1nn(-c2ccccc2)c2nc(-c3ccc(OC)cc3)c(C#N)c(=O)n12,"inconclusive [inhibitor, partial curve]",–
Cc1cc(=O)n2[nH]c(=O)c(N=Nc3ccccc3)c2[nH]1,"inconclusive [inhibitor, single point]",–
CCOC(=O)C1CCN(C(C(=O)Nc2ccc3c(c2)OCCO3)c2ccccc2)CC1 (centres undefined),"inconclusive [inhibitor, partial curve]",–
COCCn1c(N)c(C(=O)NS(=O)(=O)c2ccc(C)cc2)c(=O)[nH]c1=O,active: 15.8 µM,–
O=c1c2[nH]c3ccc(F)cc3c2ncn1CCCN1CCOCC1,"inconclusive [inhibitor, single point]",–
CC(=O)c1ccc(COC(=O)c2ccccc2NC(=O)C(C)C)cc1,–,inactive: -1.75%
COc1cc(/C=N/NS(=O)(=O)c2ccccc2)ccc1OS(=O)(=O)c1ccc(C)cc1,active: 7.94 µM,–
Nc1cc(=O)[nH]c(SCC(=O)Nc2ccccc2-c2ccccc2)n1,"inconclusive [inhibitor, single point]",–
CCNC(=S)N1CCN(S(=O)(=O)c2ccccc2C(F)(F)F)CC1,"inconclusive [inhibitor, full curve, poor fit]",–
COc1ccc(-c2nn(-c3ccccc3)cc2/C=C(/C#N)C(N)=O)cc1[N+](=O)[O-],"inconclusive [inhibitor, full curve]",–
CSc1ccc(/C=C(/NC(=O)c2ccccc2)C(=O)N2CCN(C)CC2)cc1,"inconclusive [inhibitor, single point]",–
COC(=O)c1ccccc1NC(=O)CSc1nnnn1C1CCCCC1,"inconclusive [inhibitor, single point]",–
CCN1/C(=C/c2ccc3cc(C)cc(C)c3[n+]2CC)Sc2cc(C)ccc21,active: 20 µM,–
CCN(c1ccccc1)c1nc2ccsc2c(=O)s1,"inconclusive [inhibitor, single point]",–
COc1ccc(OC)c(C(=O)N2CCC(C(=O)c3ccc(F)cc3)CC2)c1,"inconclusive [inhibitor, single point]",–
Cc1nc(C(=O)NCC(=O)c2ccc(Cl)cc2)c(C(F)(F)F)o1,"inconclusive [inhibitor, single point]",–
CS(=O)(=O)N(Cc1ccc(C(=O)N2CCc3ccccc3C2)cc1)c1ccccc1,"inconclusive [inhibitor, single point]",–
O=C(NC(Cc1ccccc1)C(=O)O)c1ccc(S(=O)(=O)N2CCCC2)cc1 (centres undefined),"inconclusive [inhibitor, partial curve]",–
O=C(CCC1CCCC1)N1CCN(C(=O)c2cccnc2)CC1,"inconclusive [inhibitor, single point]",–

Compound,Potency,"activity, negative = inhibition"
CCC(=O)O[C@@]1(C(=O)CCl)[C@@H](C)C[C@@H]2[C@H]3CCC4=CC(=O)C=C[C@@]4(C)[C@]3(F)[C@@H](O)C[C@@]21C,–,inactive: 10.9% [at 20.9 µM]
O=C(O)c1ccc(C=C(c2nc3ccccc3s2)c2nc3ccccc3s2)cc1,–,inactive: -11.4%
CCNc1ncc2nc(CCc3ccccc3)c(=O)n(CCOC)c2n1,"inconclusive [inhibitor, partial curve]",–
COc1ccccc1-c1cc(C(=O)NCCN2CCOCC2)no1,–,inactive: -8.28%
O=C(CCC1CCCC1)Nc1nnc(-c2ccc3c(c2)OCO3)s1,"inconclusive [inhibitor, partial curve]",–
Cc1cccc(-n2nnnc2-c2cnccc2C(F)(F)F)c1C,active: 15.8 µM,–
CCc1nnc(NS(=O)(=O)c2ccc(NC(=S)NC(=O)c3ccc(F)cc3)cc2)s1,"inconclusive [inhibitor, single point]",–
O=C(NCc1ccco1)c1c2c(nc3ccccc13)CCC2,"inconclusive [inhibitor, single point]",–
Cc1ccc(/C=N/NC(=O)CNC(=O)c2cccs2)o1,"inconclusive [inhibitor, single point]",–
CCc1noc(C)c1C(=O)N1CCCC(C(=O)c2ccc(OC)c(F)c2)C1 (centres undefined),active: 7.08 µM,–
Cc1c(Cl)cccc1-n1c(SCC(=O)NCc2cccs2)nnc1-c1ccncc1,"inconclusive [inhibitor, partial curve]",–
CCC(CO)n1c(=S)[nH]c2cc(OC)c(OC)cc2c1=O (centres undefined),"inconclusive [inhibitor, single point]",–
O=C(NC1CCCCC1)C(c1cccnc1)N(C(=O)CCl)c1ccccc1Cl (centres undefined),–,inactive: 3.64%
O=C(O)CC1C(=O)NCCN1C/C=C/c1ccccc1 (centres undefined),"inconclusive [inhibitor, single point]",–
O=S(=O)(Nc1ncccn1)c1ccc(NC(=S)Nc2ccc(Cl)cc2)cc1,active: 10 µM,–
CCC(C)C(=O)Nc1nnc(SCC(=O)NC(C)(C)C)s1 (centres undefined),"inconclusive [inhibitor, single point]",–
O=C(COC(=O)c1ccc(O)cc1)Nc1ccc(OC(F)F)cc1,"inconclusive [inhibitor, single point]",–
Cc1nc2cc(-c3cccc(F)c3)nn2c(C)c1CCC(=O)NC(C)c1ccc2c(c1)OCCO2 (centres undefined),"inconclusive [inhibitor, single point]",–
CC1CCCC(NC(=O)C2CCN(S(=O)(=O)N3CCCCC3)CC2)C1C (centres undefined),–,inactive: -17.2%
COC(=O)CNC(=O)COC(=O)Cc1ccc(Cl)cc1,–,inactive: 7.62%
O=C1c2oc3ccccc3c(=O)c2C(c2cccc(O)c2)N1CCCN1CCOCC1 (centres undefined),"inconclusive [inhibitor, single point]",–
CCOc1cc(NC(=S)Nc2ccc(Cl)cc2)c(OCC)cc1NC(C)=O,"inconclusive [inhibitor, single point]",–
Cn1ncc([N+](=O)[O-])c1C(=O)Nc1nc2ccccc2n1CCN1CCCCC1,"inconclusive [inhibitor, full curve]",–

Compound,Potency,"activity, negative = inhibition"
CCOC(=O)Cc1c(C)nc2c(-c3ccccc3)c(-c3ccccc3)[nH]n2c1=O,"inconclusive [inhibitor, single point]",–
COc1ccc([N+](=O)[O-])cc1NC(=O)CCC(=O)c1cccs1,"inconclusive [inhibitor, full curve]",–
Clc1cccc(Cl)c1CNc1ccc(N2CCCC2)cc1,active: 15.8 µM,–
COC1CCCCC1NS(=O)(=O)c1ccc(Cl)cc1 (centres undefined),–,inactive: -2.66%
C=CCc1cccc(CNc2nc3ccccc3n2CC)c1O,"inconclusive [inhibitor, single point]",–
O=CN1CCCN(Cc2nc(-c3cccc(Cl)c3)no2)CC1,–,inactive: 3.52%
C=CCSC1=C(C#N)C2(CCCCC2)C(C#N)C(=O)N1 (centres undefined),active: 2.51 µM,–
COc1ccc(N2C(=O)C3CCCN3C2c2ccccc2)cc1 (centres undefined),"inconclusive [inhibitor, single point]",–
CN[C@@H]1[C@H](O[C@@H]2O[C@H](CO)[C@@H](N)[C@H](O)[C@@H]2O)O[C@H]2C[C@@H](N)[C@@H](O[C@H]3[C@@H](O)[C@H](O)[C@H](N)C[C@@H]3N)O[C@H]2[C@H]1O,–,inactive: -2.58% [at 20.9 µM]
CCOC(=O)c1cnn(-c2ccccc2)c1NC(=O)C(F)(F)C(F)(F)C(F)(F)F,"inconclusive [inhibitor, single point]",–
CC(=O)c1ccc(-n2nnnc2SCC(=O)N2CCN(C(=O)c3ccco3)CC2)cc1,"inconclusive [inhibitor, single point]",–
CCN(CC)C(=S)SCC(=O)Nc1nc(=O)c2ccccc2s1,"inconclusive [inhibitor, partial curve]",–
O=C(NCCC1=CCCCC1)C1CCN(c2nnc(-n3cccc3)s2)CC1,"inconclusive [inhibitor, partial curve]",–
COc1cccc(NC(=O)COC(=O)CCCc2c[nH]c3ccccc23)c1,–,inactive: -4.47%
COc1ccc(S(=O)(=O)N2CCN(CCO)CC2)cc1-c1nnc2c3ccccc3c(C)nn12,–,inactive: -10.7%
Cc1ccc(-c2cc(C(F)F)n3ncc(C(=O)N4CCCCC4c4cccnc4)c3n2)cc1 (centres undefined),–,inactive: -8.43%
O=C(O)c1cc(S(=O)(=O)Nc2ccc3oc(=O)sc3c2)ccc1O,"inconclusive [inhibitor, single point]",–
Cc1ccc(C2CC(c3cccc(Br)c3)Nc3nnnn32)cc1 (centres undefined),active: 17.8 µM,–
CCC(C)COC(=O)C(C#N)c1nc2ccccc2nc1N1CCCCC1 (centres undefined),"inconclusive [inhibitor, single point]",–
COc1ccc(COC(=O)N/N=C2/C[C@@H](O)[C@@H](O)[C@@H]3[C@H]4C(=O)N(c5ccc(F)cc5F)C(=O)[C@@H]4CC[C@@H]23)cc1,–,inactive: -2.63% [at 13.5 µM]
S=C(c1ccc(N2CCOCC2)cc1)N1CCOCC1,active: 2.24 µM,–
CC1CCc2c(C(=O)NCc3cccnc3)csc2C1 (centres undefined),"inconclusive [inhibitor, single point]",–
O=C(CN1CCN(C(=O)c2ccccc2)CC1)Nc1ccc(Br)cn1,"inconclusive [inhibitor, single point]",–
